These results are taken from the supplement of paper PMC6135742.

Where “and” joins values, the source holds several entries; their conditions need not be identical. Equal values may be shown once. Where a name gives a salt, the structure may show the parent alone. ± gives the standard deviation of the averaged measurements. In all, about 2,600 compounds were measured (“total cell number (DAPI+ nuclei) relative to DMSO vehicle control”: median about -1.4, lowest 2% from about -23 on). The list shows a part of the results.

The assay relates to jimpy (Plp1 jimpy) mouse iPSC-derived oligodendrocyte progenitor cells. The assay is described as follows: total cell number (DAPI+ nuclei) relative to DMSO vehicle control (SDs above negative control mean); higher = more surviving cells. The following applies: 10 µM; 3 days.
Compound `CO[C@H]1/C=C/O[C@@]2(C)Oc3c(C)c(O)c4c(O)c(c(/C=N/N5CCN(C)CC5)c(O)c4c3C2=O)NC(=O)/C(C)=C\C=C\[C@H](C)[C@H](O)[C@@H](C)[C@@H](O)[C@@H](C)[C@H](OC(C)=O)[C@@H]1C` [Rifampin] came in with a total cell number of -2.94.

On to `COc1cc(F)c(C(C)C)cc1-c1ccc(C(F)(F)F)cc1CN1C(=O)O[C@H](c2cc(C(F)(F)F)cc(C(F)(F)F)c2)[C@@H]1C` [Anacetrapib (MK-0859)], for which the total cell number was determined as 0.445.

On to `CC(C)NCC(O)c1ccc(O)c(O)c1` (racemic) [(±)-Isoproterenol hydrochloride], for which the total cell number is -1.5.

Compound `CC(C)NCC(O)c1ccc(O)c(O)c1` (racemic) [Isoprenaline HCl] yielded a total cell number of -1.1.

Turning to `CCCSc1ccc2[nH]c(NC(=O)OC)nc2c1` [Albendazole], the total cell number was -6.19.

Take `Cc1c(Cl)cccc1Nc1ccccc1C(=O)O` [Tolfenamic Acid]: the total cell number was -0.866.

As for `Cc1ccc(N(CC2=NCCN2)c2cccc(O)c2)cc1` [Phentolamine mesylate], the total cell number was -0.125.

Take `Cc1ccc(N(CC2=NCCN2)c2cccc(O)c2)cc1` [Phentolamine Mesylate]: the total cell number is 0.634.

The compound `CNC[C@@H](O)c1ccc(O)c(O)c1` [L-Adrenaline] registered a total cell number of -0.0165.

Compound `CC[n+]1c(/C=C/C=C2/N(C)c3ccccc3C2(C)C)sc2ccccc21` showed a total cell number of -11.

In turn, `CCc1ccc(CCOc2ccc(CC3SC(=O)NC3=O)cc2)nc1` (stereo unspecified) [Pioglitazone] had a total cell number of -1.8.

Consider `CCc1ccc(CCOc2ccc(CC3SC(=O)NC3=O)cc2)nc1` (stereo unspecified) [Pioglitazone HCl], for which the total cell number is -0.831.

For the compound `CC(C)(C)c1ccc(/C=C/C(=O)Nc2ccc3c(c2)OCCO3)cc1`, the total cell number stood at 0.103.

Regarding `Oc1ccc(C2CNCCc3c2cc(O)c(O)c3Cl)cc1` (stereo unspecified) [Fenoldopam bromide], the total cell number was -2.3.

The compound `CC(C(=O)O)c1cccc(Oc2ccccc2)c1` (stereo unspecified) [Fenoprofen Calcium] displayed a total cell number of -0.58.

Turning to `CCCc1ncc(C[n+]2ccccc2C)c(N)n1` [Amprolium HCl], the total cell number is -0.382.

With `O=C1NC(=O)/C(=C/c2ccc3nccc(-c4ccncc4)c3c2)S1`, the total cell number is -20.2.

Regarding `O=C1NC(=O)C(c2ccccc2[N+](=O)[O-])=C1Nc1ccc(O)c(Cl)c1`, the total cell number was -1.07 and -1.59.

Take `OC[C@H]1OC(O)[C@H](O)[C@@H](O)[C@@H]1O` (stereo partly specified) [Dextrose]: the total cell number was 2.21.

As for `O=C(O)C1CCNCC1` [Isonipecotic acid], the total cell number was -1.95.

For the compound `CC1(C)CCC(NC(=O)[C@@H](N)CCC(=O)O)CC1`, the total cell number is -1.77.

The compound `C=CC(N)CCC(=O)O` (racemic) [(±)-gamma-Vinyl GABA] registered a total cell number of -0.562.

`OC[C@@H](O)[C@@H](O)[C@H](O)[C@H](O)CO` [D-Mannitol] showed a total cell number of 1.04.

`CC1(C)CCC=[N+]1[O-]` [5,5-Dimethyl-1-pyrroline-N-oxide] had a total cell number of 0.081.

Compound `CCn1cc(C(=O)O)c(=O)c2cc(F)c(N3CCNCC3)nc21` [Enoxacin] yielded a total cell number of 2.28.

As to `CC(=O)OCC(=O)NCCCOc1cccc(CN2CCCCC2)c1` [Roxatidine Acetate HCl], the total cell number is -1.22.

On to `C[C@H](NCc1ccc(OCc2cccc(F)c2)cc1)C(N)=O` [Safinamide Mesylate], for which the total cell number was -4.82.

`N[C@@H](CC(=O)O)C(=O)O` [L-Aspartic acid] showed a total cell number of -2.53.

Take `CC(C)OC(=O)C(C(=O)OC(C)C)=C1SC=CS1` [Malotilate]: the total cell number was found to be 7.42.

Compound `CNc1ncnc2c1ncn2[C@@H]1O[C@H](CO)[C@@H](O)[C@H]1O` [N6-methyladenosine (m6A)] came in with a total cell number of -1.41.

On to `CC(C)(C)C(=O)OCOC(=O)[C@@H]1N2C(=O)[C@@H](/N=C/N3CCCCCC3)[C@H]2SC1(C)C` [Pivmecillinam], for which the total cell number was -2.02.

`c1ccc2c(c1)CCCC2C1=NCCN1` (stereo unspecified) [Tetrahydrozoline HCl] had a total cell number of 1.51.

With `c1ccc2c(c1)CCCC2C1=NCCN1` (stereo unspecified) [Tetrahydrozoline hydrochloride], the total cell number is -0.562.

The compound `CN(C)C[C@H](O)Cn1c2ccc(Br)cc2c2cc(Br)ccc21` (racemic) [Wiskostatin] registered a total cell number of -4.17.

`C[C@@H](O)[C@H]1C(=O)N2C(C(=O)O)=C(SCCNC=N)C[C@H]12` [Imipenem monohydrate] had a total cell number of -1.16.

Take `CN=c1nc(-c2ccccc2)n(-c2ccccc2)s1`: the total cell number is -0.562.

`C=C(C)[C@@H]1CC[C@]2(C(=O)O)CC[C@]3(C)[C@H](CC[C@@H]4[C@@]5(C)CC[C@H](O)C(C)(C)[C@@H]5CC[C@]43C)[C@@H]12` [Betulinic acid]: the total cell number is -0.338.

`CCCCCN(C)CCC(O)(P(=O)(O)O)P(=O)(O)O` [Ibandronate sodium] displayed a total cell number of -0.942.

In turn, `C1N2CN3CN1CN(C2)C3` [Methenamine] returned a total cell number of -0.338.

Turning to `O=C(O)C1=C[C@@H](O)[C@@H](O)[C@H](O)C1` [Shikimic Acid], the total cell number came to 0.0421.

`CC(C)c1nc(N(C)S(C)(=O)=O)nc(-c2ccc(F)cc2)c1/C=C/[C@@H](O)C[C@@H](O)CC(=O)O` [Rosuvastatin Calcium] came in with a total cell number of -1.16.

In turn, `C[N+](C)(C)CCOP(=O)(O)OP(=O)([O-])OC[C@H]1O[C@@H](n2ccc(N)nc2=O)[C@H](O)[C@@H]1O` [Cytidine 5'-diphosphocholine sodium salt hydrate] registered a total cell number of -1.99.

On to `C[C@](N)(Cc1ccc(O)cc1)C(=O)O` [L-alpha-Methyl-p-tyrosine], for which the total cell number is -0.37.

`CC(C)NCC(O)COc1cccc2ccccc12` (racemic) [Propranolol HCl]: the total cell number is -2.66.

`CC(C)NCC(O)COc1cccc2ccccc12` (racemic) [(±)-Propranolol hydrochloride] registered a total cell number of -1.57.

Regarding `O=C(COc1cccc2c(=O)[nH]ccc12)c1ccccc1`, the total cell number is -0.123.

In turn, `O=C(O)Cn1c(C(=O)Nc2nc(-c3ccccc3Cl)cs2)cc2ccccc21` displayed a total cell number of -1.71.

Regarding `CNCCNS(=O)(=O)c1cccc2cnccc12` [H-8 dihydrochloride], the total cell number was -1.59.

Compound `CCN(CC)CCCC(C)Nc1ccnc2cc(Cl)ccc12` (stereo unspecified) [Chloroquine diphosphate] had a total cell number of -3.23.

Regarding `CS(=O)(=O)c1ccc([C@@H](O)[C@@H](CF)NC(=O)C(Cl)Cl)cc1` [Florfenicol], the total cell number came out at 1.1.

As for `CN1CCC(=C2c3ccccc3C=Cc3ccccc32)CC1` [Cyproheptadine hydrochloride], the total cell number is -6.41.

Compound `CN1CCC(=C2c3ccccc3C=Cc3ccccc32)CC1` [Cyproheptadine HCl] displayed a total cell number of -8.37.

Turning to `NCC(O)C1CCCCCCC1` (stereo unspecified) [2-Cyclooctyl-2-hydroxyethylamine hydrochloride], the total cell number is -0.1.

`N=C(N)NC(=N)NCCc1ccccc1` [Phenformin HCl]: the total cell number came out at 2.53.

`CO[C@H]1/C=C/O[C@@]2(C)Oc3c(C)c(O)c4c(O)c(c(/C=N/N5CCN(C6CCCC6)CC5)c(O)c4c3C2=O)NC(=O)/C(C)=C\C=C\[C@H](C)[C@H](O)[C@@H](C)[C@@H](O)[C@@H](C)[C@H](OC(C)=O)[C@@H]1C` [Rifapentine] gave a total cell number of -3.26.

For `CC(C)(C=O)Cc1cc(C(C)(C)C)c(O)c(C(C)(C)C)c1`, the total cell number stood at 0.433.

`C[C@H]1O[C@H](O[C@H]2[C@H](O)[C@@H](O)[C@@H](O[C@H]3[C@H](O)[C@@H](O)C(O)O[C@@H]3CO)O[C@@H]2CO)[C@H](O)[C@@H](O)[C@@H]1N[C@H]1C=C(CO)[C@@H](O)[C@H](O)[C@H]1O` (stereo partly specified) [Acarbose] displayed a total cell number of -3.41.

As to `CNC1CCCN(c2c(F)cc3c(=O)c(C(=O)O)cn(C4CC4)c3c2OC)C1` (stereo unspecified) [Balofloxacin], the total cell number is -0.259.

`NC1(C(=O)O)CCCCC1` [1-Amino-1-cyclohexanecarboxylic acid hydrochloride]: the total cell number is -1.3.

The compound `C=C1CC[C@H](O)C/C1=C/C=C1\CCC[C@]2(C)[C@@H]([C@H](C)CCCC(C)C)CC[C@@H]12` [Vitamin D3] showed a total cell number of -0.478.

For the compound `NNCCc1ccccc1` [Phenelzine sulfate], the total cell number was -0.6.

As for `CC(C)(O)[C@H]1CC[C@@](C)([C@H]2[C@@H](O)C[C@@]3(C)[C@@H]4C[C@H](O[C@@H]5O[C@H](CO)[C@@H](O)[C@H](O)[C@H]5O)[C@H]5C(C)(C)[C@@H](O[C@@H]6OC[C@@H](O)[C@H](O)[C@H]6O)CC[C@@]56C[C@@]46CC[C@]23C)O1` [Astragaloside A], the total cell number was -0.31.

Compound `CC(C)(C)NCC(O)COc1cccc2[nH]c(=O)[nH]c12` (racemic) returned a total cell number of -0.745.

In the case of `CCCc1cc(C(N)=S)ccn1` [Protionamide], the total cell number was -0.33.

The compound `C#Cc1cccc(Nc2ncnc3cc(OC)c(OCCCCCCC(=O)NO)cc23)c1` yielded a total cell number of -18.7.

As for `CC(=O)S[C@@H]1CC2=CC(=O)CC[C@]2(C)[C@H]2CC[C@@]3(C)[C@@H](CC[C@@]34CCC(=O)O4)[C@H]12` [Spironolactone], the total cell number is -1.48 ± 1.4.

In turn, `O=C(O)[C@]1(Cc2cccc(Nc3nccs3)n2)CC[C@@H](Oc2cccc(Cl)c2F)CC1` showed a total cell number of -4.55.

`CC(=O)Nc1ccc(C(=O)Nc2ccccc2N)cc1` [CI994 (Tacedinaline)] came in with a total cell number of -6.95.

`COc1cc2c(Nc3ccc(NC(=O)c4ccccc4)cc3)ncnc2cc1OCCCN1CCOCC1` registered a total cell number of -26.6.

On to `CC(C)(C)c1cnc(CSc2cnc(NC(=O)C3CCNCC3)s2)o1`, for which the total cell number was -22.9.

`COc1ccc(-c2cc(=O)c3c(O)c(OC)c(OC)cc3o2)cc1O` [Eupatorin] yielded a total cell number of -8.23.

In turn, `CCN[C@H]1CN(CCCOC)S(=O)(=O)c2sc(S(N)(=O)=O)cc21` [Brinzolamide] showed a total cell number of -1.41 ± 1.

On to `CC(C)c1c(C(=O)Nc2ccccc2)c(-c2ccccc2)c(-c2ccc(F)cc2)n1CC[C@@H](O)C[C@@H](O)CC(=O)O` [Atorvastatin Calcium], for which the total cell number is -8.47.

Consider `CC(C)c1c(C(=O)Nc2ccccc2)c(-c2ccccc2)c(-c2ccc(F)cc2)n1CC[C@@H](O)C[C@@H](O)CC(=O)O` [Atorvastatin calcium salt trihydrate], for which the total cell number was -4.46.

Regarding `CN(C)CCC(c1ccc(Cl)cc1)c1ccccn1` (racemic) [Chlorpheniramine Maleate], the total cell number is -2.4.

`CN(C)CCC(c1ccc(Cl)cc1)c1ccccn1` (racemic) [(±)-Chlorpheniramine maleate] came in with a total cell number of -2.22.
